Assay results reported in publication PMC9174058.
Results are given in words; binding and its absence hold for the method and conditions named. Binding seen in cells or lysates may run through a third protein. Some entries that bind do so weakly or less than the wild type. Where a sequence is shown, tags or fusion partners need not be part of it.

Protein sequences, listed by entry. Tags and fused reporters are not part of them.
UniProt Q96P20: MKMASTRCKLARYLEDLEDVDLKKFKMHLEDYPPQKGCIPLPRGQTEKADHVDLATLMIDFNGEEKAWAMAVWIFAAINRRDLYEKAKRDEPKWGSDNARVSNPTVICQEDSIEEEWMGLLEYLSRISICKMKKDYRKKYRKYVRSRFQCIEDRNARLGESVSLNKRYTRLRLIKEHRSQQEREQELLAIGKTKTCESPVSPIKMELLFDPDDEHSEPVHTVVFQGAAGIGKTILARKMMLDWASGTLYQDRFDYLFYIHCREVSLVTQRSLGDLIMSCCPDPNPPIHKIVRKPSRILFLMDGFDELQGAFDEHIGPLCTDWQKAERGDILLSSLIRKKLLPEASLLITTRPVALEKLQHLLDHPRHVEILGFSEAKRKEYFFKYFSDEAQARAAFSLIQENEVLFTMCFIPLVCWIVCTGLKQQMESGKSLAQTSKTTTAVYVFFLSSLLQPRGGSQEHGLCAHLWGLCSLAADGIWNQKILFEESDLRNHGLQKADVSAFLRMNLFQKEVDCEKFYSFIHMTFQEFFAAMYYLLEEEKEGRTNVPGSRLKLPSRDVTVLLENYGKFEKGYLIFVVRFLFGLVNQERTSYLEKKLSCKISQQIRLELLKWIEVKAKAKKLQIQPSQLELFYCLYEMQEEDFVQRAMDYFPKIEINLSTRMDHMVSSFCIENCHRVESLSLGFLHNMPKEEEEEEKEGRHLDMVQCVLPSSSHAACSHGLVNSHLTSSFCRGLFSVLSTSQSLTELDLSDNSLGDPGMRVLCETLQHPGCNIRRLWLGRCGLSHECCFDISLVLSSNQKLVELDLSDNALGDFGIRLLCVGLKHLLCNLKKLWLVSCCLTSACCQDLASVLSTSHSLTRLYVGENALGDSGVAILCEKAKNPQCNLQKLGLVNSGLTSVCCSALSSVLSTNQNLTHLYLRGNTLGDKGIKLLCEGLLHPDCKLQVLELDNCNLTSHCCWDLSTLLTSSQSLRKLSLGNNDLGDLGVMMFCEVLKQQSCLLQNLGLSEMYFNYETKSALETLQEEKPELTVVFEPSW

Legend:
NLRP11-Flag (human) [1] = target: T1, NLRP11-Flag (human) (UniProt P59045); assay: co-IP; immobilised anti-Flag antibodies, culture supernatants of NLRP11^Flag THP-1 cells primed with LPS and activated with nigericin (5 uM, 10 min); media adjusted to 0.1% Triton X-100, washed with 50 mM NaCl, 0.1% Triton X-100; immunoblot for NLRP3
T1 sequence: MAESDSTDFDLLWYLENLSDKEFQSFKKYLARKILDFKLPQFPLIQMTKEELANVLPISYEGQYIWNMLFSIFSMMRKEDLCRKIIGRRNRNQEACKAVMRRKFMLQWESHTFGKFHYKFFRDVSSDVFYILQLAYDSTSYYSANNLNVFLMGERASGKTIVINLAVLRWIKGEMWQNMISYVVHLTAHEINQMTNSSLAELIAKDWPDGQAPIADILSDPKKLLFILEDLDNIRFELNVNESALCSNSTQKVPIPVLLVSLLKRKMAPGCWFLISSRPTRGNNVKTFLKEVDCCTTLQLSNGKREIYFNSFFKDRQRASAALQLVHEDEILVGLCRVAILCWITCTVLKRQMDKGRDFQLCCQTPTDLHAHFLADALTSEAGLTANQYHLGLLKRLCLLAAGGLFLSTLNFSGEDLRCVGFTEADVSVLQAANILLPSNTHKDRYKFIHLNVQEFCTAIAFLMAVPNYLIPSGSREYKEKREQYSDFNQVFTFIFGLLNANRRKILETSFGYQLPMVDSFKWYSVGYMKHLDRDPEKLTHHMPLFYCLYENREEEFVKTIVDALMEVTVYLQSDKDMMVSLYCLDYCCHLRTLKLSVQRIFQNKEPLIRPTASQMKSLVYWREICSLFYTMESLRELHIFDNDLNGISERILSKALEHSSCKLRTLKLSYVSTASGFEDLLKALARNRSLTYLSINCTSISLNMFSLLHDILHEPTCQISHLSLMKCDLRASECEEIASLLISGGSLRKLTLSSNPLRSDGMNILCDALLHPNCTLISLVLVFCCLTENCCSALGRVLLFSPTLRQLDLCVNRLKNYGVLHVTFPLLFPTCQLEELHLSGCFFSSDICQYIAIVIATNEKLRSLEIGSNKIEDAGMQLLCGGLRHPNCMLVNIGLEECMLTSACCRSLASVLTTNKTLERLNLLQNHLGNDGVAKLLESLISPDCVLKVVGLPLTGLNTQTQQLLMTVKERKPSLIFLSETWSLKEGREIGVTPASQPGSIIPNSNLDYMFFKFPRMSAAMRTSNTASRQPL

NLRP11-Flag (human) [2] = target: T1, NLRP11-Flag (human); assay: condition: only supernatants of primed cells without nigericin; co-IP; as a12 but supernatants of cells LPS-primed only, without nigericin

binding (NLRP11-Flag (human) [1]): binds
binding (NLRP11-Flag (human) [2]): no binding
Substance: NLRP3 (endogenous, THP-1) (from UniProt Q96P20 1-1036)
